Reference: a collection of fitness landscapes (doi:10.1126/science.1257360)
This is one part of the list.

B1: PhoQ; a variant is named by its letters at X, in order, P23837 (parent)
chain: MKKLLRLFFPLSLRVRFLLATAAVVLVLSLAYGMVALIGYSVSFDKTTFRLLRGESNLFYTLAKWENNKLHVELPENIDKQSPTMTLIYDENGQLLWAQRDVPWLMKMIQPDWLKSNGFHEIEADVNDTSLLLSGDHSIQQQLQEVREDDDDAEMTHSVAVNVYPATSRMPKLTIVVVDTIPVELKSSYMVWSWFIYVLSANLLLVIPLLWVAAWWSLRPIEALAKEVRELEEHNRELLNPATTRELTSLVRNLNRLLKSERERYDKYRTTLTDLTHSLKTPLXXLQXXLRSLRSEKMSVSDAEPVMLEQISRISQQIGYYLHRASMRGGTLLSRELHPVAPLLDNLTSALNKVYQRKGVNISLDISPEISFVGEQNDFVEVMGNVLDNACKYCLEFVEISARQTDEHLYIVVEDDGPGIPLSKREVIFDRGQRVDTLRPGQGVGLAVAREITEQYEGKIVAGESMLGGARMEVIFGRQHSAPKDE

Variants of: B1
Assay: enrichment ratio after two sorts for PhoP signalling (ratio (wild type AVST 3.29)); higher = more functional
Details: with PhoP (E. coli)

Variant	enrichment ratio
FAEG	≤ 0.25
HVAY	≤ 0.25
WCYV	≤ 0.25
YARG	≤ 0.25
SMFA	≤ 0.25
HFPW	≤ 0.25
TSSH	11.3
SFSH	≤ 0.25
ILME	≤ 0.25
NLSN	≤ 0.25
IYDD	≤ 0.25
EMMN	≤ 0.25
ASCK	22.8
HISA	≤ 0.25
KVSY	≤ 0.25
PGNE	≤ 0.25
RKIN	≤ 0.25
NNDN	≤ 0.25
KHMS	≤ 0.25
SKSW	≤ 0.25
HHLE	≤ 0.25
NIRC	≤ 0.25
ELCC	≤ 0.25
PHYI	≤ 0.25

Variant	enrichment ratio
FNLP	≤ 0.25
QVPC	≤ 0.25
TTAA	9.33
DEKC	≤ 0.25
IFAW	≤ 0.25
TYGT	≤ 0.25
GFCC	≤ 0.25
QIHM	≤ 0.25
NMKY	≤ 0.25
MTDY	≤ 0.25
YILF	≤ 0.25
IICP	≤ 0.25
RQTH	≤ 0.25
PINH	≤ 0.25
GKFT	≤ 0.25
VQTE	≤ 0.25
FLQI	≤ 0.25
FVMD	≤ 0.25
TESI	13.5
QCQK	≤ 0.25
AALD	0.316
YPDV	≤ 0.25
VYHN	≤ 0.25
INRG	≤ 0.25

Variant	enrichment ratio
ERCT	≤ 0.25
LKLY	≤ 0.25
AHRW	≤ 0.25
MHGN	≤ 0.25
HDYA	≤ 0.25
TQVK	≤ 0.25
FASY	≤ 0.25
MVRT	≤ 0.25
FQSC	≤ 0.25
KYWL	≤ 0.25
GMYN	≤ 0.25
YNVC	≤ 0.25
PKLG	≤ 0.25
EYAI	≤ 0.25
YLGI	≤ 0.25
THHG	≤ 0.25
AQPQ	≤ 0.25
SDFV	≤ 0.25
DASW	≤ 0.25
KYVW	≤ 0.25
GFMV	≤ 0.25
QCRT	≤ 0.25
QCDY	10.3
EQHR	≤ 0.25

Variant	enrichment ratio
PIFL	≤ 0.25
YSER	≤ 0.25
TAGH	9.91
FGNL	≤ 0.25
TNIA	≤ 0.25
KYVM	≤ 0.25
IELS	2.67
MAEI	≤ 0.25
YGVT	0.549
HGEP	≤ 0.25
SSDI	≤ 0.25
MQHA	≤ 0.25
IWVR	≤ 0.25
TFRT	≤ 0.25
HWPM	≤ 0.25
KFWW	≤ 0.25
TQGM	14.5
QPRF	≤ 0.25
AFLK	1
KELH	≤ 0.25
RDIK	≤ 0.25
YSWC	≤ 0.25
GVKR	≤ 0.25
CRPF	≤ 0.25

Variant	enrichment ratio
SVCE	2.84
ETIG	≤ 0.25
HPYP	≤ 0.25
AFYT	≤ 0.25
HIYQ	≤ 0.25
FPHW	≤ 0.25
MYIP	≤ 0.25
MKMA	≤ 0.25
IFYQ	≤ 0.25
GLKK	≤ 0.25
NDKI	≤ 0.25
RFFY	≤ 0.25
DRQS	≤ 0.25
MTRL	≤ 0.25
PQTT	≤ 0.25
MYAY	≤ 0.25
YASP	≤ 0.25
KLAQ	≤ 0.25
YLWD	≤ 0.25
YRWT	≤ 0.25
YHKQ	≤ 0.25
PKDR	≤ 0.25
ADWK	≤ 0.25
LCGD	≤ 0.25

Variant	enrichment ratio
VAQY	≤ 0.25
TCWR	≤ 0.25
VIPM	≤ 0.25
LSWA	≤ 0.25
DDFP	≤ 0.25
GGNR	≤ 0.25
LPLA	0.507
RPHS	≤ 0.25
IFFM	≤ 0.25
EMEA	≤ 0.25
PDNY	≤ 0.25
HART	≤ 0.25
KAQE	≤ 0.25
KDGR	≤ 0.25
WTWI	≤ 0.25
FRGR	≤ 0.25
YMSF	≤ 0.25
QRVL	≤ 0.25
LCRI	≤ 0.25
NIAP	≤ 0.25
FQQV	≤ 0.25
LFLV	≤ 0.25
GCFV	≤ 0.25
KFPA	≤ 0.25

Variant	enrichment ratio
SDNP	≤ 0.25
IGTF	≤ 0.25
PSNP	≤ 0.25
GCAM	7.42
QVLE	≤ 0.25
RWLY	≤ 0.25
WHCA	≤ 0.25
GMTQ	≤ 0.25
GDLY	≤ 0.25
LFTM	≤ 0.25
MMWC	≤ 0.25
FNDS	1.51
LVSM	≤ 0.25
PMVK	≤ 0.25
SGPD	≤ 0.25
YNST	0.345
TFGR	≤ 0.25
AHHH	≤ 0.25
FGDH	≤ 0.25
DNSF	≤ 0.25
APTH	≤ 0.25
NNFC	≤ 0.25
AKRT	≤ 0.25
KDCW	≤ 0.25

Variant	enrichment ratio
ISKT	0.48
MYMS	≤ 0.25
NMVD	≤ 0.25
NQEC	≤ 0.25
FNWR	≤ 0.25
RMLN	≤ 0.25
NDLQ	≤ 0.25
SPYD	≤ 0.25
LEYR	≤ 0.25
RHGD	≤ 0.25
FPFS	≤ 0.25
ADDW	≤ 0.25
FEIH	≤ 0.25
TDHI	≤ 0.25
QFAM	≤ 0.25
NHQP	≤ 0.25
GIGY	3.68
DFWM	≤ 0.25
AEFQ	3.73
VWWW	≤ 0.25
DPHY	≤ 0.25
LLRD	≤ 0.25
ASAI	13.2
YPLI	≤ 0.25

Variant	enrichment ratio
FIRE	≤ 0.25
DAIN	≤ 0.25
YRMI	≤ 0.25
MLCR	≤ 0.25
VKAD	≤ 0.25
CFFH	≤ 0.25
FRFK	≤ 0.25
HLRI	≤ 0.25
STWY	≤ 0.25
AYYR	≤ 0.25
MLAL	7.89
PHFF	≤ 0.25
TASF	8.94
WIKH	≤ 0.25
RWYC	≤ 0.25
TPVK	≤ 0.25
HLSG	≤ 0.25
DSKW	≤ 0.25
MCCR	≤ 0.25
TMCC	10.7
WFMH	≤ 0.25
MQEN	≤ 0.25
NYDF	≤ 0.25
SYYE	≤ 0.25

Variant	enrichment ratio
WSSW	≤ 0.25
QPNC	≤ 0.25
DIHN	≤ 0.25
PAKH	≤ 0.25
WGTE	≤ 0.25
QWSR	≤ 0.25
QDHY	≤ 0.25
MSVF	0.464
LTEY	≤ 0.25
PQQE	≤ 0.25
IKLL	≤ 0.25
KYEA	≤ 0.25
NRRQ	≤ 0.25
MQYF	≤ 0.25
PGCY	≤ 0.25
GDQY	≤ 0.25
EMCL	≤ 0.25
KSMR	≤ 0.25
QLLP	≤ 0.25
SLPF	≤ 0.25
KSKS	≤ 0.25
RSDG	≤ 0.25
QRMK	≤ 0.25
LVAD	≤ 0.25

Variant	enrichment ratio
FCET	≤ 0.25
ITQF	≤ 0.25
ASTT	6.42
TAWT	6.5
NLKT	≤ 0.25
QQPC	≤ 0.25
YQIP	≤ 0.25
NFDG	≤ 0.25
TLGQ	7.94
QPII	≤ 0.25
IFTA	≤ 0.25
TIAT	10.2
KRIH	≤ 0.25
YHEE	≤ 0.25
LVHP	≤ 0.25
VKNS	≤ 0.25
HGCK	≤ 0.25
GAMF	≤ 0.25
PIWN	≤ 0.25
MCFP	≤ 0.25
QFYQ	≤ 0.25
IMLI	≤ 0.25
IEPI	≤ 0.25
IYTQ	≤ 0.25

Variant	enrichment ratio
STAE	9.48
ASRR	≤ 0.25
DYMM	≤ 0.25
WKHY	≤ 0.25
MPKR	≤ 0.25
REVP	≤ 0.25
GYTC	≤ 0.25
LSSY	≤ 0.25
PIMD	≤ 0.25
LPGH	≤ 0.25
YDET	≤ 0.25
QSMI	7.54
DWWN	≤ 0.25
MWHP	≤ 0.25
SDNC	≤ 0.25
MLCI	7.47
IYYF	≤ 0.25
DCAV	≤ 0.25
LFHC	≤ 0.25
KQQI	≤ 0.25
QMHF	13.5
GAVN	≤ 0.25
TLAN	12.5
GSRV	≤ 0.25

Variant	enrichment ratio
SRLI	6.88
IIWF	≤ 0.25
VGCE	≤ 0.25
FILF	7.23
WDTP	≤ 0.25
KAQA	≤ 0.25
CARG	≤ 0.25
NQDP	≤ 0.25
EHNG	≤ 0.25
YTGW	≤ 0.25
GVSN	5.89
TTST	10.3
KVKH	≤ 0.25
VTMA	≤ 0.25
TCAW	1.27
LYPI	≤ 0.25
PAPW	≤ 0.25
SITN	4.88
